Among all 310,000 compounds or so, about 14,000 (4.5%) showed an effect of 50% or more. The effect is printed as a negative number. This is one part of the list.
Target: human ether-à-go-go-related gene (hERG) potassium channel (human, UniProt Q12809)
Experiment: primary screen, population patch clamp on CHO cells stably expressing hERG
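Note: peak tail current of the secondary pulse compared with the same well before compound.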

human ether-à-go-go-related gene (hERG) potassium channel, sequence (Q12809 whole entry, looked up): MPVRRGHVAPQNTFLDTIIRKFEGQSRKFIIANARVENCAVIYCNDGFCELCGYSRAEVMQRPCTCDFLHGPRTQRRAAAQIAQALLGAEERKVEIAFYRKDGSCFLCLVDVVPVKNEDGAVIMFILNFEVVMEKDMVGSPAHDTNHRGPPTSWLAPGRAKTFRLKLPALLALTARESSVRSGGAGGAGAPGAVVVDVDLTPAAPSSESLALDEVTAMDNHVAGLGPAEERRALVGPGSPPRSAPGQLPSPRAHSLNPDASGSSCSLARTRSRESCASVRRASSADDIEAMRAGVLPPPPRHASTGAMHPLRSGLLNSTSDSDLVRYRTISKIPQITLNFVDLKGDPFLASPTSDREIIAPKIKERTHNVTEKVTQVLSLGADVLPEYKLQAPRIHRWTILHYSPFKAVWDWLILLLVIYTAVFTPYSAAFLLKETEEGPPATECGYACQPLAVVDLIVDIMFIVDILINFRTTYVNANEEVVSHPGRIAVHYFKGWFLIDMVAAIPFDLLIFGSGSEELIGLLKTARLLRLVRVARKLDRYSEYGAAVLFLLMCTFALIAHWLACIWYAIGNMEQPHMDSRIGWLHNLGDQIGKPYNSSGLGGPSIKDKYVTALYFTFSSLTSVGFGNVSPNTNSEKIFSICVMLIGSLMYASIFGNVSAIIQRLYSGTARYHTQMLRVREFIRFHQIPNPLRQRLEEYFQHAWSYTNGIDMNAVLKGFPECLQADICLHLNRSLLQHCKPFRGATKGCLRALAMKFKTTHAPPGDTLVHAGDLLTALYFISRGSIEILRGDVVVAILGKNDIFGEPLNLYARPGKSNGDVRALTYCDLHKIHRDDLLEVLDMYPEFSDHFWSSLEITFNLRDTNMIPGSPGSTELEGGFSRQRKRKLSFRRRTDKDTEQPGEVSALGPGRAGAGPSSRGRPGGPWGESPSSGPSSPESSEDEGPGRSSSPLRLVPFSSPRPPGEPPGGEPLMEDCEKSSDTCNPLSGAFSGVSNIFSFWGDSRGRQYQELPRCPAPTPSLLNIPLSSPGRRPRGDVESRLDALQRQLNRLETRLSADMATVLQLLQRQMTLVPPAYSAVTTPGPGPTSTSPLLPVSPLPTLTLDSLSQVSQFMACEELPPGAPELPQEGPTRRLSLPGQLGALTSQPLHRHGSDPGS

Compound | hERG current change (%, negative = inhibition) at 10uM [%]
COc1ccc(C2C(C#N)=C(N)Oc3c2oc(CO)cc3=O)c(OC)c1OC (stereo not drawn) | 6.35
O=C(CSc1nnc(NC(=O)C2CC2)s1)Nc1ccc(F)cc1F | -19.9
O=S(=O)(Nc1ccncc1)c1cc(Cl)c(Cl)cc1Cl | 0.0869
CCN1CCN(C(c2cccs2)C(C)NC(=O)NC2CCCCC2)CC1 (stereo not drawn) | -45.5
COC(=O)[C@H]1CCCN1C(=O)Nc1cccc(Oc2c(F)c(F)c(F)c(F)c2F)c1 | -48
CC(=O)Nc1ccc(Oc2cnc3ccccc3n2)cc1 | -9.21
Nc1nc(Nc2ccccc2)nc(C(F)(F)F)n1 | 2.08
CC1(C)CC(=O)c2cnc(NC(=O)C3CCCC3)nc2C1 | -12.6
CC(C)(Oc1ccc(Cl)cc1)C(=O)OCC(=O)NCCc1ccccc1 | 5.82
CC(C)(C)C(=O)Nc1ccccc1C(=O)NCc1ccco1 | -16.7
CC1(C)CC2CN(C(=O)Cc3ccccc3)C(C)(C2)C1 (stereo not drawn) | 0.0688
Cc1ccc(S(=O)(=O)N(CC(=O)NC2CC2)c2ccc(C)c(Cl)c2)cc1 | 5.27
C=CCN(CC=C)C(=O)Nc1cc(Cl)ccc1OC | -8.71
CCN1CCC[C@H]1CNC(=O)c1c(O)c(Cl)cc(Cl)c1OC.O=C(O)C(O)C(O)C(=O)O | -13.8
COc1cccc(/C=N/NC(=O)CCn2nnc3ccccc32)c1 | -8.76
CC(=O)c1cccc(NC(=O)c2ccc3ccccc3c2)c1 | 6.07
CCOc1cc(CNCCCN2CCOCC2)cc(Cl)c1OCC(=O)NC(C)(C)C.Cl | 5.38
COC(=O)c1cn(C)c2ccc(S(=O)(=O)N3CCOCC3)cc2c1=O | 13
CCCOc1ccc(N2C(=O)CC(N(CCC)C(=O)CCC(=O)O)C2=O)cc1 (stereo not drawn) | 15.1
COP(=O)(OC)C1(Nc2ccc(C)cc2)CCCCC1 | -21.4
Fc1ccc(CN2CCN(c3ncccn3)CC2)cc1 | -3.32
CC1(C2CC2)NC(=O)NC1=O (stereo not drawn) | -10.3

Compound | hERG current change (%, negative = inhibition) at 10uM [%]
CCCCc1ccc(NC(=O)COc2ccc(C(=O)Nc3ccccc3C)cc2)cc1 | 11.6
CC(=O)C1=C(c2ccc(Br)cc2)C(=O)c2ccccc2C1=O | -6.47
COc1ccc(CCNC(=O)c2cccc(S(=O)(=O)N3CCCC3)c2)cc1OC | -5.03
O=C(Cn1nc(CNc2ccc(Cl)cc2)[n+]2c1CCCCC2)c1ccc(Br)cc1.[Br-] | -61.6
C/C(N)=C(/C#N)C(=O)CSc1nc2ccccc2c(=O)n1-c1ccc(C)cc1 | 2.95
CCN(c1ccccc1)S(=O)(=O)c1ccc(Cl)c(NC(=O)COC(=O)c2ccc[nH]c2=O)c1 | 3.13
CCOC(=O)c1c(C)c(C)n(Cc2cccc(OC)c2OC)c1C | -0.614
O=C(OCC(=O)N1CCCC1)c1ccccc1C(=O)c1ccccc1 | 1.74
O=C(/C=C/c1ccco1)Nc1nc(-c2ccc(F)c(F)c2)cs1 | 7.43
O=C(c1cccs1)N1CCN(S(=O)(=O)c2ccccc2)CC1 | -6.98
Cc1ccc(N2CCN(C(=O)c3cccc([N+](=O)[O-])c3)CC2)cc1Cl | -19.1
COc1ccc(NC(=O)c2[nH]c(C)c(C(C)=O)c2C)cc1Cl | -3.63
CCCC(=O)Nc1cc(-c2nnc(OC)c3ccccc23)ccc1N1CCCCC1 | -36.3
COC(=O)CCN1CCc2cc(N=Nc3ccc([N+](=O)[O-])cc3)ccc21 | 18
CCOC(=O)c1cc(C)sc1NC(=O)c1ccc(Cl)s1 | -13.6
O=C1NC(=S)N(C(=O)c2ccc(F)cc2)/C1=C/c1ccccc1 | -2.91
CCCNc1nc(OC(C(F)(F)F)C(F)(F)F)nc(OC(C(F)(F)F)C(F)(F)F)n1 | -0.729
COCCCNC(=O)CSc1nc2cc3c(cc2c(=O)n1CCCC(=O)NCc1ccc(OC)cc1)OCO3 | 12.6
Cc1noc(C)c1CSc1nnc2n(-c3ccccc3)c(=O)c3ccccc3n12 | -8.97
CN1CCN(c2ccc(CNS(=O)(=O)c3ccc(Cl)cc3)cc2)CC1 | 5.81
COC(=O)c1ccc2c(c1)N(Cc1nc(-c3ccc(Cl)cc3)oc1C)C(=O)C1CCCN21 (stereo not drawn) | -3.55
Cc1cc(Oc2ccc(C(F)(F)F)cc2[N+](=O)[O-])c2c3c(c(=O)oc2c1)CCC3 | 19.5

Compound | hERG current change (%, negative = inhibition) at 10uM [%]
O=C(c1ccccc1)C(Sc1ncn[nH]1)c1ccccc1 (stereo not drawn) | -0.568
Cc1ccc(S(=O)(=O)N2CCC(C(=O)N3CCC[C@H]3C(=O)NC3CCS(=O)(=O)C3)CC2)cc1 (stereo partly drawn) | -3.5
CCN(C(=O)COc1ccc(C(=O)c2ccccc2)cc1)c1ccccc1 | -18.9
CC(=O)Nc1ccc(N(C(=O)c2ccco2)C(C(=O)NC2CCCCC2)c2ccccc2)cc1 (stereo not drawn) | -9.56
C/C(=N\NC(=O)CN1CCN(c2ccc(F)cc2)CC1)c1ccco1 | -30.3
CCOC(=O)C1(c2ccccc2)CCN(Cc2cccc(C(=O)O)c2)CC1.Cl | 2.34
CC(=O)Nc1ccc(C(=O)OCc2ccc(Cl)c(Cl)c2)cc1 | 6.4
CC(=O)Nc1c(Nc2ccccc2)c2ccccc2oc1=O | 3.92
CCOc1cc(C)c(S(=O)(=O)NC2CC(C)(C)NC(C)(C)C2)cc1C | 16.7
COc1ccc(Cl)cc1NC(=O)c1noc(C)c1[N+](=O)[O-] | -29.5
COC(=O)/C(=C1/Oc2ccc(C(C)(C)C)cc2S1)C(F)(F)F | 24.6
Cc1ccccc1NC(=S)NCC(c1cccnc1)N(C)C (stereo not drawn) | 14.6
COc1cccc(NC(=O)NC2(C(=O)N3CCC(O)CC3)CCCCC2)c1 | 16.4
COc1ccccc1N(CN1C(=O)c2ccccc2C1=O)C(=O)c1cccc(C)c1 | -20.7
Cc1ccc(C(NC(=O)N2CCN(C)CC2)C(Cl)Cl)cc1F (stereo not drawn) | 0.45
Cc1sc(NC(=O)C2CC=CCC2C(=O)O)c(C(=O)OC(C)C)c1C (stereo not drawn) | -4.12
Cc1ccn(S(=O)(=O)c2ccc(N3CCCC3=O)cc2)n1 | 16.2
O=C(N/N=C\C=C\c1ccco1)c1cc(-c2ccc3ccccc3c2)n[nH]1 | -4.1
Cc1cc(C)c2c(=O)n(CC(=O)Nc3ccc(Cl)cc3)sc2n1 | 8.25
CC(C)(C)C(=O)Nc1c2c(nc3c1CCC3)CCCC2 | 1.53
Cc1ccc(N(C(=O)C2CCCC2)C2C=CS(=O)(=O)C2)cc1 (stereo not drawn) | 3.58
COc1ccc(OC)c(NC(=O)CSc2nc(N)c(-c3ccccc3)c(=O)[nH]2)c1 | 10.4

Compound | hERG current change (%, negative = inhibition) at 10uM [%]
COCCN(C(=O)Cc1cccs1)C(C(=O)NCc1ccc(OC)cc1)c1ccc(C(C)C)cc1 (stereo not drawn) | -14.1
CCN(CC)CCNCC(=O)Nc1ccc(Cl)cc1C(=O)c1ccccc1.O=C(O)C(=O)O | -75.2
O=C(Oc1nsnc1N1CCOCC1)N1CCOCC1 | 15.3
CC(=O)Nc1cccc2c1C(=O)N(c1cccc(OC(C)=O)c1)C2=O | 1.17
O=C(O)CCCC(=O)Nc1cc([N+](=O)[O-])ccc1O | 18.4
C#CCNC(=O)C1=C[C@H](c2csc3ccccc23)[C@@H](CCCO)[C@H](OCC)O1 | -22.6
COc1ccccc1N1CCN(C(=O)CCNS(=O)(=O)c2cc(Br)cnc2N)CC1 | -13.1
CCOC(=O)Nc1ccc2c(c1)nc(CN1CCN(C(C)=O)CC1)n2C | 10
CC[n+]1c(SC)ccc2cc(OC)ccc21.[O-][Cl+3]([O-])([O-])[O-] | -10.6
CCn1c(C)cc2c(c1=O)C(c1ccncc1)C(C#N)=C(N)O2 (stereo not drawn) | 2.4
COc1cc(NC(=S)NC(=O)CCc2ccccc2)cc(OC)c1 | 0.899
COc1ccccc1OCCNC(=O)c1cccc(S(=O)(=O)N2CC(C)OC(C)C2)c1 (stereo not drawn) | -14.8
COc1ccc(C2C(C(=O)NCc3ccco3)c3ccccc3C(=O)N2C)cc1 (stereo not drawn) | 20.5
C=CCn1c(SCc2nc(N)nc(N3CCCCC3)n2)nnc1-c1ccco1 | -6.39
OCC#CC[N+]1(CC#Cc2ccccc2)CCCC1.[Br-] | 14.5
CC(C)CCNC(=O)c1onc(CSc2ccncc2)c1C(=O)NCCC(C)C | 6.45
Cc1ccc(SC(C)C(=O)Nc2cccnc2)cc1 (stereo not drawn) | 8.73
COc1ccc(Br)cc1/C=N/n1nnnc1N | 9.08
O=c1[nH]c(CN2CCCCC2)nc2c1C1(CCCCC1)Cc1ccccc1-2 | 7.16
CCOC(=O)c1ccc(N2C(=O)C(O)=C(C(C)=O)C2c2ccc(O)c(OC)c2)cc1 (stereo not drawn) | 6.04
Cc1cc(N2CCN(C)CC2)nc2ccc(NC(=S)NC3CC3)cc12 | 3.2

— PMC4336329 (PLoS ONE, 2015)
